From the supplement of paper PMC4967469

Assays:
Assay in all cases: Viability of human cancer cell lines after 72 h of drug (GDSC screen)
Shikonin = compound: CC(C)=CC[C@@H](O)C1=CC(=O)c2c(O)ccc(O)c2C1=O [Shikonin]; details: top dose 16 µM; top dose inferred
Description: (§1)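 Human cancer cell lines in 384-well plates, medium with 10% serum, drug for 72 h over a 256-fold dose range (nine 2-fold or five 4-fold steps up to the top dose). Adherent lines were fixed and stained with the nucleic acid dye Syto60, suspension lines read with resazurin; signal relative to control wells, capped at 0 and 100%. One two-parameter sigmoid per drug and line, fitted in a mixed model over all curves with the slope shared within a line.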

HG-5-113-01 = compound: CNC(=O)c1ccc(Nc2cc(Nc3ccccc3S(=O)(=O)C(C)C)c3cc[nH]c3n2)nc1 [HG-5-113-01]; details: top dose 10 µM; top dose inferred
Description: as §1

BMS-536924 = compound: Cc1cc(N2CCOCC2)cc2[nH]c(-c3c(NC[C@@H](O)c4cccc(Cl)c4)cc[nH]c3=O)nc12 [BMS-536924]; details: top dose 4 µM; screen: GDSC drug entry 1091; top dose inferred
Description: as §1

BIRB 0796 = compound: Cc1ccc(-n2nc(C(C)(C)C)cc2NC(=O)Nc2ccc(OCCN3CCOCC3)c3ccccc23)cc1 [BIRB 0796]; details: top dose 10 µM; top dose inferred
Description: as §1

SB-525334 = compound: Cc1cccc(-c2[nH]c(C(C)(C)C)nc2-c2ccc3nccnc3c2)n1 [SB-525334]; details: top dose 20 µM; top dose inferred
Description: as §1

VX-702 = compound: NC(=O)c1ccc(N(C(N)=O)c2c(F)cccc2F)nc1-c1ccc(F)cc1F [VX-702]; details: top dose 2 µM; top dose inferred
Description: as §1

Olaparib = compound: O=C(c1cc(Cc2n[nH]c(=O)c3ccccc23)ccc1F)N1CCN(C(=O)C2CC2)CC1 [Olaparib]
Description: as §1

Wee1 inhibitor 681640 = compound: O=C1NC(=O)c2c1c(-c1ccccc1Cl)cc1[nH]c3ccc(O)cc3c21 [Wee1 inhibitor 681640]; details: top dose 2 µM; top dose inferred
Description: as §1

[1] = top dose 5 µM, screen: GDSC drug entry 1017, top dose inferred
[2] = top dose 10 µM, screen: GDSC drug entry 1495

Cell Line | AUC (Shikonin) | IC50 (Shikonin) [µM] | AUC (HG-5-113-01) | IC50 (HG-5-113-01) [µM] | AUC (BMS-536924) | IC50 (BMS-536924) [µM] | AUC (BIRB 0796) | IC50 (BIRB 0796) [µM] | AUC (SB-525334) | IC50 (SB-525334) [µM] | AUC (VX-702) | IC50 (VX-702) [µM] | AUC (Olaparib; [1]) | IC50 (Olaparib; [1]) [µM] | AUC (Olaparib; [2]) | IC50 (Olaparib; [2]) [µM] | AUC (Wee1 inhibitor 681640) | IC50 (Wee1 inhibitor 681640) [µM]
KYSE-150 (oesophagus, adherent) | 0.501 | 1.01 | 0.862 | 7.95 | 0.976 | > 4 | 0.988 | > 10 | 0.964 | > 20 | 0.966 | > 2 | 0.979 | > 5 | 0.979 | > 10 | 0.937 | > 2
KYSE-220 (oesophagus, adherent) | 0.663 | 2.91 | 0.664 | 1.84 | 0.831 | 2.74 | 0.977 | > 10 | 0.953 | > 20 | 0.985 | > 2 | 0.985 | > 5 | 0.926 | > 10 | 0.927 | > 2
KYSE-410 (oesophagus, adherent) | 0.397 | 0.51 | 0.742 | 3.25 | 0.889 | > 4 | 0.958 | > 10 | 0.964 | > 20 | 0.979 | > 2 | 0.969 | > 5 |  |  | 0.961 | > 2
KYSE-450 (oesophagus, adherent) | 0.189 | 0.126 | 0.755 | 3.23 | 0.955 | > 4 | 0.937 | > 10 | 0.884 | 19.6 | 0.988 | > 2 | 0.988 | > 5 | 0.979 | > 10 | 0.984 | > 2
LCLC-97TM1 (large cell lung carcinoma, adherent) | 0.428 | 0.622 | 0.655 | 1.76 | 0.83 | 2.86 | 0.981 | > 10 | 0.906 | > 20 | 0.971 | > 2 | 0.95 | > 5 | 0.925 | > 10 | 0.903 | > 2
LK-2 (lung squamous cell carcinoma, adherent) | 0.808 | 7.72 | 0.658 | 1.67 | 0.908 | > 4 | 0.942 | > 10 | 0.92 | > 20 | 0.987 | > 2 | 0.989 | > 5 | 0.94 | > 10 | 0.955 | > 2
LOU-NH91 (lung squamous cell carcinoma, adherent) | 0.738 | 5.15 | 0.862 | 9.85 | 0.927 | > 4 | 0.882 | > 10 | 0.98 | > 20 | 0.986 | > 2 | 0.986 | > 5 | 0.977 | > 10 | 0.968 | > 2
LS-180 (large intestine, adherent) | 0.571 | 1.61 | 0.955 | > 10 | 0.926 | > 4 | 0.934 | > 10 | 0.982 | > 20 | 0.983 | > 2 | 0.972 | > 5 | 0.903 | > 10 | 0.909 | > 2
M059J (glioma, adherent) | 0.288 | 0.238 | 0.817 | 6.19 | 0.961 | > 4 | 0.985 | > 10 | 0.931 | > 20 | 0.983 | > 2 | 0.959 | > 5 | 0.911 | > 10 | 0.969 | > 2
MES-SA (uterus, adherent) | 0.316 | 0.335 | 0.555 | 0.864 | 0.977 | > 4 | 0.926 | > 10 | 0.992 | > 20 | 0.992 | > 2 | 0.984 | > 5 | 0.967 | > 10 | 0.988 | > 2
MFE-280 (endometrium, adherent) | 0.672 | 3.45 | 0.641 | 1.7 | 0.869 | > 4 | 0.943 | > 10 | 0.857 | > 20 | 0.982 | > 2 | 0.982 | > 5 | 0.968 | > 10 | 0.982 | > 2
MFE-296 (endometrium, adherent) | 0.406 | 0.541 | 0.686 | 2.17 | 0.894 | > 4 | 0.974 | > 10 | 0.976 | > 20 | 0.985 | > 2 | 0.971 | > 5 | 0.895 | > 10 | 0.96 | > 2
MOG-G-CCM (glioma, adherent) | 0.425 | 0.602 | 0.859 | > 10 | 0.967 | > 4 | 0.946 | > 10 | 0.945 | > 20 | 0.983 | > 2 | 0.945 | > 5 | 0.938 | > 10 | 0.865 | > 2
NCI-H28 (mesothelioma, adherent) | 0.541 | 1.34 | 0.691 | 2.56 | 0.88 | > 4 | 0.902 | > 10 | 0.953 | > 20 | 0.957 | > 2 | 0.967 | > 5 | 0.904 | > 10 | 0.94 | > 2
NCI-H630 (large intestine, adherent) | 0.554 | 1.42 | 0.832 | 7.03 | 0.811 | 2.33 | 0.959 | > 10 | 0.953 | > 20 | 0.984 | > 2 | 0.966 | > 5 | 0.987 | > 10 | 0.878 | > 2
NCI-H650 (lung adenocarcinoma, adherent) | 0.5 | 1 | 0.778 | 4.48 | 0.953 | > 4 | 0.984 | > 10 | 0.966 | > 20 | 0.971 | > 2 | 0.969 | > 5 | 0.976 | > 10 | 0.964 | > 2
NCI-H810 (large cell lung carcinoma, adherent) | 0.414 | 0.589 | 0.729 | 2.71 | 0.987 | > 4 | 0.986 | > 10 | 0.988 | > 20 | 0.969 | > 2 | 0.984 | > 5 | 0.899 | > 10 | 0.942 | > 2
NCI-H1437 (lung adenocarcinoma, adherent) | 0.61 | 2.03 | 0.746 | 3.29 | 0.767 | 1.55 | 0.925 | > 10 | 0.954 | > 20 | 0.985 | > 2 | 0.982 | > 5 | 0.981 | > 10 | 0.975 | > 2
NCI-H1563 (lung adenocarcinoma, adherent) | 0.407 | 0.53 | 0.794 | 5.58 | 0.905 | > 4 | 0.916 | > 10 | 0.861 | > 20 | 0.985 | > 2 | 0.985 | > 5 | 0.983 | > 10 | 0.985 | > 2
NCI-H1623 (lung adenocarcinoma, adherent) | 0.692 | 3.92 | 0.896 | > 10 | 0.953 | > 4 | 0.983 | > 10 | 0.977 | > 20 | 0.982 | > 2 | 0.985 | > 5 | 0.891 | > 10 | 0.969 | > 2
NCI-H1651 (lung adenocarcinoma, adherent) | 0.818 | 9.95 | 0.811 | 5.82 | 0.979 | > 4 | 0.983 | > 10 | 0.986 | > 20 | 0.987 | > 2 | 0.914 | > 5 | 0.792 | 4.94 | 0.948 | > 2
NCI-H1755 (lung adenocarcinoma, adherent) | 0.858 | > 16 | 0.717 | 2.88 | 0.814 | 2.61 | 0.968 | > 10 | 0.495 | 1.21 | 0.984 | > 2 | 0.984 | > 5 | 0.98 | > 10 | 0.939 | > 2
NCI-H1781 (lung adenocarcinoma, adherent) | 0.59 | 1.77 | 0.813 | 5.41 | 0.963 | > 4 | 0.981 | > 10 | 0.988 | > 20 | 0.989 | > 2 | 0.989 | > 5 | 0.954 | > 10 | 0.989 | > 2
NCI-H1993 (lung adenocarcinoma, adherent) | 0.608 | 2.18 | 0.909 | > 10 | 0.961 | > 4 | 0.981 | > 10 | 0.974 | > 20 | 0.972 | > 2 | 0.974 | > 5 | 0.978 | > 10 | 0.982 | > 2
NCI-H2087 (lung adenocarcinoma, semi-adherent) | 0.361 | 0.401 | 0.788 | 4.74 | 0.882 | > 4 | 0.975 | > 10 | 0.961 | > 20 | 0.985 | > 2 | 0.982 | > 5 | 0.945 | > 10 | 0.902 | > 2

IC50 is the fitted dose that halves viability relative to control wells, and lower means more sensitive; a fit beyond the top or the lowest dose is shown as a bound at that dose. AUC sums up the same curve from the lowest dose to the 256-fold higher top dose: 1 means no effect, lower means more sensitive. A top dose marked as inferred comes from the curve model; the source does not state it. For some of these results: Drugs with an entry number were screened twice under separate entries, and the two screens often disagree.
